In PubChem BioAssay AID1347073 (National Center for Advancing Translational Sciences (NCATS), 2019):
In all, about 45,000 compounds went through this assay and about 200 (0.44%) were called active. Inconclusive results (about 7%) are left out. The call rests on the fitted dose curve; in most records, active means well fitted activation curve with a large enough effect; inconclusive means small, poorly fitted or top-dose-only effect; inactive means no such curve, though single readings can be large or run the other way. The list shows a part of the results.

Assay: qHTS of TDP-43 Inhibitors: NCGC Sytravon Library Screen; further: 0% is about no effect; nearly all actives have a fitted effect of over 55% in size
Settings: yeast TDP-43 toxicity rescue, BacTiter-Glo growth, 24 h; series mostly up to 46.1 µM; growth rescue (activation): at the top concentration
Outline: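 TDP-43-expressing yeast, pregrown in raffinose, seeded at OD600 0.02 in galactose medium with compound for 24 hr at 30 deg C. Growth read by BacTiter-Glo luminescence, so rescue of toxicity appears as activation.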

Row | Compound | growth rescue (activation)
1 | CCOC(=O)/C(=C/c1ccccc1)NC(=O)c1ccco1 | inactive: -1.01%
2 | CCc1ccccc1NC(=O)c1ccc(S(=O)(=O)N2CCCC2)cc1 | inactive: 0.0459%
3 | COc1ccc(NC(=O)c2ccccc2NC(=O)c2ccco2)cc1 | inactive: 14.7%
4 | C/C(=N/NC(=O)C(C)n1nc(C)c([N+](=O)[O-])c1C)c1ccc(OCC(N)=O)cc1 (centres undefined) | inactive: -0.392%
5 | Cc1cc(C(=O)N/N=C2\CC(=O)CC(C)(C)C2)c(C)n1-c1ccc(F)cc1 | inactive: -15.3%
6 | Cc1cc(S(=O)(=O)N2c3ccc(F)cc3CCC2C)ccc1-n1cnnn1 (centres undefined) | inactive: -6.26%
7 | CN(CCC#N)C(=O)COC(=O)c1cc(Cl)cc(Cl)c1N | inactive: -4.88%
8 | Nc1cccc2c1C(=O)N(CCOc1ccc(F)cc1)C2=O | inactive: 17.1%
9 | COc1ccc(Cc2nnc(NC(=O)CS(=O)(=O)c3ccc(C)cc3)s2)cc1OC | inactive: -9.96%
10 | Cc1cc(C)c(C)c(S(=O)(=O)NNC(=O)c2cccc(S(=O)(=O)N3CCOCC3)c2)c1C | inactive: -14%
11 | Cc1nc2ccc(NC(=O)c3ccc([N+](=O)[O-])cc3)cc2s1 | inactive: 18.4%
12 | CCOC(=O)N/N=C\C=C\c1ccc2c(c1)OCO2 | inactive: 16.2%
13 | CC(C(=O)Nc1ccccc1)N(C)CCOc1ccccc1 (centres undefined) | inactive: 8.22%
14 | O=C(CCCOc1ccc(Cl)cc1Cl)NNC(=O)c1ccc(NC(=O)c2ccccc2)cc1 | inactive: 6.27%
15 | COc1cc(C(C(=O)Nc2c(C)cccc2C)N(C)C(=O)c2ccc(-n3cnnn3)cc2)ccc1O (centres undefined) | inactive: -12.3%
16 | Cc1ccccc1-c1nc(C#N)c(NCc2ccco2)o1 | inactive: 0.927%
17 | Cc1ccc(C(C)C)cc1OCC(=O)NCCCn1ccnc1 | inactive: -4.82%
18 | CCC1CCCCN1Cc1nc(Cc2ccccc2Cl)no1 (centres undefined) | inactive: 17.4%
19 | CCCc1ccc(Oc2cc(Cl)nc(N)n2)cc1 | inactive: 22.6%
20 | O=C(c1ccc(S(=O)(=O)N2CCCC2)cc1)N1CCN(c2ccccc2)CC1 | inactive: 20.9%
21 | Cc1ccc(OCc2nc3ccccc3[nH]2)cc1 | inactive: -1.44%
22 | O=C(Nc1cccc(C(=O)O)c1)Nc1ccccc1Cl | inactive: -8.27%
23 | COc1ccc(NC(=O)c2ccc(S(=O)(=O)N3CCCCCC3)cc2)c(OC)c1 | inactive: 2.26%
24 | CCCC(=O)NC(=S)Nc1cccc(-c2nc3ncccc3o2)c1 | inactive: 8.41%
25 | COc1ccc(-c2nn3c(-c4ccc(OC)cc4)nnc3c3ccccc23)cc1 | inactive: 11.1%
26 | Cc1ccc2c(c1)cc(C(=O)Nc1ccccc1C)n2C | inactive: 6.7%
27 | CC(C)CN(C(=O)COC(=O)c1ccccc1SCC(=O)NC1CCCCCC1)C1CCS(=O)(=O)C1 (centres undefined) | inactive: 9.68%

Row | Compound | growth rescue (activation)
28 | O=C(c1nc2ccccn2c1CNCCCn1ncc2ccccc21)N1CCCC1 | inactive: 7.6%
29 | CC(NC(=O)COC(=O)C12CC3CC(CC(Br)(C3)C1)C2)c1ccccc1 (centres undefined) | inactive: 5.28%
30 | CCC(C)c1ccccc1NC(=O)COC(=O)C1=COCCO1 (centres undefined) | inactive: 15.4%
31 | CCOC(=O)CNC(=O)/C=C/c1c(Cl)cccc1Cl | inactive: 26.8%
32 | O=C(NCCN1C(=O)S/C(=C\c2cccnc2)C1=O)c1cccc(OC(F)F)c1 | inactive: 5.25%
33 | CCOC(=O)N1CCN(C(=S)NC(=O)c2c(-c3c(Cl)cccc3Cl)noc2C)CC1 | inactive: 24.2%
34 | CCOc1ccccc1Nc1nnc(SCC(=O)N(C)C2CCS(=O)(=O)C2)s1 (centres undefined) | inactive: -1.82%
35 | CNc1ccccc1C(C)(C)c1cc(-c2ccc(F)cc2)no1 | inactive: 6.42%
36 | Cc1ccc(NC(=O)CSc2nn(-c3ccc(Cl)cc3)c(=S)s2)cc1S(=O)(=O)N(C)C | inactive: 15.3%
37 | NS(=O)(=O)c1cccc(NC(=O)CCCC2CCCCC2)c1 | inactive: 2.31%
38 | O=C(NCc1ccco1)/C(=C/c1ccco1)NC(=O)c1ccccc1 | inactive: -1.99%
39 | O=C(C1CCN(S(=O)(=O)c2ccccc2)CC1)N1CCN(Cc2ccccc2)CC1 | inactive: 14.1%
40 | CC(=O)Nc1ccc(S(=O)(=O)N[C@@H](C)C(=O)OCC(=O)c2ccc[nH]2)cc1 | inactive: 5.94%
41 | CCCCCCCCn1c2c(c(=N)c3c1CCC3)CCCC2 | inactive: -13.8%
42 | O=C(NCCc1ccccc1)c1ccc2c(=O)[nH]c3c(C(=O)NCC4CCCO4)sc(=S)n3c2c1 (centres undefined) | inactive: 6.09%
43 | CC1CCN(CCCN2C(=O)C3C(C(=O)Nc4ccc(Cl)cc4)C4C=CC3(O4)C2C(=O)NC2CCCCC2)CC1 (centres undefined) | inactive: 1.26%
44 | Cn1c(-c2ccc([N+](=O)[O-])cc2)nc2ccccc21 | inactive: 10.3%
45 | O=c1oc2ccccc2cc1-c1cn2ccccc2n1 | inactive: -7.52%
46 | CCN(CC)c1ccc(/C=N/NC(=S)NCc2ccccc2)c(O)c1 | inactive: -21.9%
47 | CCOc1ccc(Oc2cc(N)cc([N+](=O)[O-])c2)cc1 | inactive: 8.52%
48 | COc1ccc(-c2csc(NC(=S)NC(=O)c3cccs3)n2)cc1OC | inactive: 17.6%
49 | O=S(=O)(/C=C/c1ccccc1)N1CCN(c2nc(-c3cccnc3)nc3ccccc23)CC1 | inactive: -1.18%
50 | CCCC(=O)OCCNc1cc(SCCC(=O)OC)c2nonc2c1[N+](=O)[O-] | inactive: -7.65%
51 | O=S(=O)(Nc1cccnc1Cl)c1ccc(F)cc1 | inactive: 3.77%
52 | CCc1ccc(-n2c(SCC(=O)Nc3cccc(S(=O)(=O)NC4=NCCCCC4)c3)nc3ccccc3c2=O)cc1 | inactive: -3.27%
53 | COc1ccc(CN(CCC(c2ccc3c(c2)OCO3)c2ccccc2OC)C(C)=O)cc1 (centres undefined) | inactive: 12.1%
54 | c1ccc2sc(NCC3CCCO3)nc2c1 (centres undefined) | inactive: 16.5%
